Reference: PubChem BioAssay AID2147 (National Center for Advancing Translational Sciences (NCATS), 2009)
In all, about 230,000 compounds went through this assay and about 3,600 (1.6%) were called active. The shares of active, inactive and inconclusive entries below differ from those in the screen. The call rests on the fitted dose curve; in most records, active means well fitted inhibition curve with a large enough effect (not every such curve was filed as active); inconclusive means small, poorly fitted or top-dose-only effect, or another doubt; inactive means no such curve, though single readings can be large or run the other way. Where the call is inconclusive, the potency comes from a doubtful curve fit.
Further: nearly all actives have a fitted effect of over 50% in size.
Potency means the concentration at half of the fitted maximal effect; tags describe the fitted curve by direction and shape.
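Wherever activity change, negative = inhibition is given: 0% = wells with enzyme and -100% = buffer wells without enzyme.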

What follows are molecules tested against Lysine-specific demethylase 4E (Homo sapiens) (UniProt B2RXH2) (assay: qHTS Assay for Inhibitors of Human Jumonji Domain Containing 2E (JMJD2E)). Settings: JMJD2E catalytic domain, FDH-coupled NADH fluorescence (FDH is formaldehyde dehydrogenase); series mostly up to 57.1 µM; activity change, negative = inhibition: at the top concentration.
Chain of UniProt B2RXH2 (B2RXH2 whole entry, looked up, the tested form may be a part): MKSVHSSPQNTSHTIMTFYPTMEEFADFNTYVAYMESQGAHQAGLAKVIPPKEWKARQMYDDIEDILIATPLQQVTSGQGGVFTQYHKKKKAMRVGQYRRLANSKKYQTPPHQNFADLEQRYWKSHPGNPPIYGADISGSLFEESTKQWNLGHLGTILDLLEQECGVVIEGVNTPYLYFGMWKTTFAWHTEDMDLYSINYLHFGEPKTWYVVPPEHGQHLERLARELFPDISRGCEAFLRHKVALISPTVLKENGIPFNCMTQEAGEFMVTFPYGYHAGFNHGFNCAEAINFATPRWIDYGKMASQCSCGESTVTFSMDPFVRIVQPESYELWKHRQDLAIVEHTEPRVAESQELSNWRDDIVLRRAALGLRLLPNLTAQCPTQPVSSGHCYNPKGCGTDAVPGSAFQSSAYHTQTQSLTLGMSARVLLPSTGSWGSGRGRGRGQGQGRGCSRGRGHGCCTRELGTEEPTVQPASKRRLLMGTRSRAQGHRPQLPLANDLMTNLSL
In the case of CC1=NOC(=O)/C1=C\c1ccc(-c2cccc(Cl)c2)o1, the “activity change, negative = inhibition” value is reported as inactive: 10.5%. With O=C(Nc1cc(S(=O)(=O)Nc2ccc(Cl)cc2)ccc1N1CCCCC1)c1ccc(F)cc1 the Potency was inconclusive: 39.8 µM [inhibitor, single point]. With CCOC(=O)c1cc(-c2ccc(OC)cc2F)nc2c1c(C)nn2CCC#N the Potency was inconclusive: 25.1 µM [inhibitor, partial curve]. In the case of Cc1ccc(S(=O)(=O)Nc2ccc(Br)cc2/C=N/n2cnnc2)cc1, the “activity change, negative = inhibition” value is reported as inactive: -3.19%. For CC1CCc2c(sc(/N=C/c3ccco3)c2C(N)=O)C1 (configuration not stated), the Potency was inconclusive: 35.5 µM [inhibitor, single point]. With O=C(O)c1cc2cc(Cc3cccnc3)ccc2o1 the Potency was “inactive”. With COc1ccc(NCc2ccc(OC)c(OC)c2)cc1 the Potency was inconclusive: 12.6 µM [inhibitor, partial curve]. For Cc1ccc(C(=O)N[C@H](C(=O)Nc2cc(Cl)cc(Cl)c2)C(C)C)cc1, the “activity change, negative = inhibition” value was inactive: 5.06%. In the case of CC(C)n1cc(-c2ccc(Cl)cc2)cc(C#N)c1=O, the Potency is reported as inconclusive: 39.8 µM [inhibitor, single point]. c1ccc(-c2nnc(CSc3nnc(-c4ccncc4)n3Cc3ccco3)o2)cc1 was tested, and the “activity change, negative = inhibition” value was inactive: 3.34%. O=c1c2c(nc3cc(-c4ccc(F)cc4)[nH]n13)CCCC2 was tested, and the Potency was inconclusive: 12.6 µM [inhibitor, partial curve]. With COc1ccc2c(c1)c1ccccc1n2C the Potency was inconclusive: 2.24 µM [inhibitor, partial curve]. In the case of O=C(CCCN1C(=O)/C(=C\c2ccccc2)SC1=S)Nc1ccccc1O, the “activity change, negative = inhibition” value is reported as inactive: 0.574%. Cc1cc(=O)n2c3ccccc3n(CC(O)CN3CCCC3)c2c1C#N (configuration not stated) was tested, and the Potency was inconclusive: 28.2 µM [inhibitor, partial curve]. In the case of CN(C(=O)c1ccncc1)c1nnc(-c2ccncc2)s1, the Potency is reported as inconclusive: 31.6 µM [inhibitor, single point]. With NC(=S)N/N=C\c1ccc(-c2cccc(Cl)c2Cl)o1 the Potency was inconclusive: 35.5 µM [inhibitor, single point]. For COc1cc(/C=C2\SC(=S)N(Nc3ccccc3)C2=O)cc(OC)c1OC, the “activity change, negative = inhibition” value was inactive: -1.52%. With CCOC(=O)c1c(N)n(-c2ccc(N)cc2)c2nc3ccccc3nc12 the Potency was active: 17.8 µM. For CNC(=O)COC(=O)c1cc(-c2ccc(OC)cc2)nc2ccccc12, the Potency was inconclusive: 31.6 µM [inhibitor, partial curve]. For CCc1cc(=O)oc2c(C)c(O)c(CN3CCCCC3)cc12, the Potency was inconclusive: 28.2 µM [inhibitor, partial curve]. For CCNC(=S)NNC(=O)c1cccn(Cc2ccc(Cl)cc2Cl)c1=O, the Potency was inconclusive: 31.6 µM [inhibitor, single point]. With O=[N+]([O-])c1ccc(CSc2nc3ccccc3[nH]2)cc1 the “activity change, negative = inhibition” value was inactive: 1.87%. For O=C(NC1CCCC1)C(c1cccs1)N(Cc1ccco1)C(=O)c1csnn1 (configuration not stated), the “activity change, negative = inhibition” value was inactive: 2.61%. COc1ccccc1CC(=O)Nc1ccc(O)cc1C(=O)O was tested, and the Potency was inconclusive: 35.5 µM [inhibitor, partial curve]. With CCOC(=O)C1CSC(Cc2ccc(OCc3ccc([N+](=O)[O-])cc3)cc2)N1 (configuration not stated) the Potency was inconclusive: 31.6 µM [inhibitor, single point]. In the case of COC(=O)Cc1ccc(NC(=O)c2ccc(NC(=O)c3ccco3)cc2)cc1, the Potency is reported as inconclusive: 39.8 µM [inhibitor, single point]. With Cc1ncc(CO)c(/C=N/NC(=S)Nc2ccc(Cl)c(Cl)c2)c1O the Potency was inconclusive: 25.1 µM [inhibitor, partial curve]. For CCOC(=O)c1c(C)nc2ccccn12, the “activity change, negative = inhibition” value was inactive: 2.77%. With CCOc1cc(-c2cc(-c3ccc(C)o3)nc(N)c2C#N)ccc1O the Potency was inconclusive: 22.4 µM [inhibitor, partial curve]. For CCCN1C(=O)c2ccccc2NC1c1ccc(OC)cc1O (configuration not stated), the Potency was inconclusive: 28.2 µM [inhibitor, partial curve]. For COc1cccc2c(=O)n(CC(=O)N3CCCCCC3)ccc12, the Potency was inconclusive: 25.1 µM [inhibitor, single point]. With O=C(Nc1nc(-c2ccccc2)nc2ccccc12)c1ccc(F)cc1 the Potency was inconclusive: 28.2 µM [inhibitor, partial curve]. CS(=O)(=O)N1CCCC(C(=O)NCCc2ccccc2)C1 (configuration not stated) was tested, and the “activity change, negative = inhibition” value was inactive: 5.87%. With COc1ccc(OCCSc2nnc(CCNC(=O)c3ccc(Cl)c(Cl)c3)n2C)cc1 the “activity change, negative = inhibition” value was inactive: 5.87%. For Cc1nc2ccc3nc(NC(=O)C4COc5ccccc5O4)sc3c2s1 (configuration not stated), the Potency was inconclusive: 39.8 µM [inhibitor, single point]. CCC(C)(C)c1ccc(OCCCC[n+]2cccc(C)c2)c(C(C)(C)CC)c1 was tested, and the “activity change, negative = inhibition” value was inactive: 4.78%. In the case of COc1cc(/C=N/NC(=O)c2cc(-c3cccn3C)n[nH]2)cc(OC)c1OC, the “activity change, negative = inhibition” value is reported as inactive: -4.68%. COc1ccccc1NS(=O)(=O)c1cccc(C(=O)N/N=C/c2cn(-c3ccccc3)nc2-c2ccccc2)c1 was tested, and the Potency was inconclusive: 8.91 µM [inhibitor, full curve]. Cc1[nH]nc2c1C(c1ccccc1F)CC(=O)N2 (configuration not stated) was tested, and the “activity change, negative = inhibition” value was inactive: -0.11%. In the case of CN(c1ccc(C(=O)N2CCCCC2)cc1)S(C)(=O)=O, the “activity change, negative = inhibition” value is reported as inactive: 4.25%. For O=C1CC2(CCCCC2)Oc2ccc(OCC(=O)N3CCOCC3)cc21, the Potency was inconclusive: 28.2 µM [inhibitor, partial curve]. CCOc1ccc(C(c2c(NC(=O)c3ccccc3)sc(C)c2C)N2CCN(C)CC2)cc1 (configuration not stated) was tested, and the Potency was inconclusive: 35.5 µM [inhibitor, single point]. With CCOc1cccc(Nc2cc3n(c(=O)n2)CCc2cc(OC)c(OC)cc2-3)c1 the Potency was inconclusive: 12.6 µM [inhibitor, partial curve]. CS(=O)(=O)N1N=C(c2cccs2)CC1c1ccco1 (configuration not stated) was tested, and the Potency was inconclusive: 0.0251 µM [inhibitor, full curve]. In the case of O=C(/C=C/c1ccc([N+](=O)[O-])s1)N1CCCCC1, the “activity change, negative = inhibition” value is reported as inactive: -3.08%. CCCOC(=O)COC(=O)c1ccccc1NC(=O)c1ccccc1 was tested, and the Potency was inconclusive: 35.5 µM [inhibitor, single point]. In the case of COc1cccc(/C=C(\CC(=O)O)c2nc3ccccc3s2)c1, the Potency is reported as inconclusive: 25.1 µM [inhibitor, partial curve].
